# Measurements reported in the supplement of paper PMC8728848.
# Some of the results follow.
# B1: PfulAvr4 2 (Pseudocercospora fuligena) (protein)
# chain: HHHHHHDYKDDDDKAKPIKPFACPPKDFTTTKCQGPVDCLYANPLSCLGYIQCVCDDDACSTATPYAKSCPTGLAWVEKLKRCDGIKKSACPKKMYEGS
# Assays:
# Experiment in all cases: glycan array binding signal (z-score within array); higher = stronger binding
# Details in all cases: glycan notation: IUPAC condensed, linker removed
# GlcNAc(b1-3)Gal(b1-4)Glc = target: GlcNAc(b1-3)Gal(b1-4)Glc
# In short: (§1)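 The Consortium for Functional Glycomics database supplied 3228 glycan arrays, of which those lacking an available protein sequence were dropped. The binding signal, a within-array Z-score, was averaged across arrays of the same protein sequence and across linkers. Negative scores can be read as non-binding.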
# [1] = target: GlcNAc(b1-3)Gal(b1-4)GlcNAc
# In short: as §1
# [2] = target: GlcNAc(b1-3)Gal(b1-4)GlcNAc(b1-2)Man(a1-3)[GlcNAc(b1-3)Gal(b1-4)GlcNAc(b1-2)Man(a1-6)]Man(b1-4)GlcNAc(b1-4)GlcNAc
# In short: as §1
# [3] = target: GlcNAc(b1-3)Gal(b1-4)GlcNAc(b1-2)Man(a1-3)[GlcNAc(b1-3)Gal(b1-4)GlcNAc(b1-2)Man(a1-6)]Man(b1-4)GlcNAc(b1-4)[Fuc(a1-6)]GlcNAc
# In short: as §1
# [4] = target: GlcNAc(b1-3)Gal(b1-4)GlcNAc(b1-2)[GlcNAc(b1-3)Gal(b1-4)GlcNAc(b1-6)]Man(a1-6)[GlcNAc(b1-3)Gal(b1-4)GlcNAc(b1-2)Man(a1-3)]Man(b1-4)GlcNAc(b1-4)GlcNAc
# In short: as §1
# [5] = target: GlcNAc(b1-3)Gal(b1-4)GlcNAc(b1-3)Gal(b1-4)GlcNAc
# In short: as §1
# [6] = target: GlcNAc(b1-3)Gal(b1-4)GlcNAc(b1-3)Gal(b1-4)GlcNAc(b1-2)Man(a1-3)[GlcNAc(b1-3)Gal(b1-4)GlcNAc(b1-3)Gal(b1-4)GlcNAc(b1-2)Man(a1-6)]Man(b1-4)GlcNAc(b1-4)GlcNAc
# In short: as §1
# [7] = target: GlcNAc(b1-3)Gal(b1-4)GlcNAc(b1-3)Gal(b1-4)GlcNAc(b1-2)Man(a1-3)[GlcNAc(b1-3)Gal(b1-4)GlcNAc(b1-3)Gal(b1-4)GlcNAc(b1-2)Man(a1-6)]Man(b1-4)GlcNAc(b1-4)[Fuc(a1-6)]GlcNAc
# In short: as §1
# [8] = target: GlcNAc(b1-3)Gal(b1-4)GlcNAc(b1-3)Gal(b1-4)GlcNAc(b1-2)[GlcNAc(b1-3)Gal(b1-4)GlcNAc(b1-3)Gal(b1-4)GlcNAc(b1-6)]Man(a1-6)[GlcNAc(b1-3)Gal(b1-4)GlcNAc(b1-3)Gal(b1-4)GlcNAc(b1-2)Man(a1-3)]Man(b1-4)GlcNAc(b1-4)[Fuc(a1-6)]GlcNAc
# In short: as §1
# [9] = target: GlcNAc(b1-3)Gal(b1-4)GlcNAc(b1-3)Gal(b1-4)GlcNAc(b1-3)Gal(b1-4)GlcNAc(b1-2)Man(a1-3)[GlcNAc(b1-3)Gal(b1-4)GlcNAc(b1-3)Gal(b1-4)GlcNAc(b1-3)Gal(b1-4)GlcNAc(b1-2)Man(a1-6)]Man(b1-4)GlcNAc(b1-4)GlcNAc
# In short: as §1
# [10] = target: GlcNAc(b1-3)Gal(b1-4)GlcNAc(b1-3)Gal(b1-4)GlcNAc(b1-3)Gal(b1-4)GlcNAc(b1-2)Man(a1-3)[GlcNAc(b1-3)Gal(b1-4)GlcNAc(b1-3)Gal(b1-4)GlcNAc(b1-3)Gal(b1-4)GlcNAc(b1-2)Man(a1-6)]Man(b1-4)GlcNAc(b1-4)[Fuc(a1-6)]GlcNAc
# In short: as §1
# [11] = target: GlcNAc(b1-3)Gal(b1-4)GlcNAc(b1-3)Gal(b1-4)GlcNAc(b1-3)Gal(b1-4)GlcNAc(b1-2)[GlcNAc(b1-3)Gal(b1-4)GlcNAc(b1-3)Gal(b1-4)GlcNAc(b1-3)Gal(b1-4)GlcNAc(b1-6)]Man(a1-6)[GlcNAc(b1-3)Gal(b1-4)GlcNAc(b1-3)Gal(b1-4)GlcNAc(b1-3)Gal(b1-4)GlcNAc(b1-2)Man(a1-3)]Man(b1-4)GlcNAc(b1-4)[Fuc(a1-6)]GlcNAc
# In short: as §1
# [12] = target: GlcNAc(b1-3)Gal(b1-4)GlcNAc(b1-3)Gal(b1-4)GlcNAc(b1-3)Gal(b1-4)GlcNAc(b1-3)Gal(b1-4)GlcNAc(b1-2)Man(a1-3)[GlcNAc(b1-3)Gal(b1-4)GlcNAc(b1-3)Gal(b1-4)GlcNAc(b1-3)Gal(b1-4)GlcNAc(b1-3)Gal(b1-4)GlcNAc(b1-2)Man(a1-6)]Man(b1-4)GlcNAc(b1-4)GlcNAc
# In short: as §1
# [13] = target: GlcNAc(b1-3)Gal(b1-4)GlcNAc(b1-3)Gal(b1-4)GlcNAc(b1-3)Gal(b1-4)GlcNAc(b1-3)Gal(b1-4)GlcNAc(b1-2)Man(a1-3)[GlcNAc(b1-3)Gal(b1-4)GlcNAc(b1-3)Gal(b1-4)GlcNAc(b1-3)Gal(b1-4)GlcNAc(b1-3)Gal(b1-4)GlcNAc(b1-2)Man(a1-6)]Man(b1-4)GlcNAc(b1-4)[Fuc(a1-6)]GlcNAc
# In short: as §1
# [14] = target: GlcNAc(b1-3)Gal(b1-4)GlcNAc(b1-3)Gal(b1-4)GlcNAc(b1-3)Gal(b1-4)GlcNAc(b1-3)Gal(b1-4)GlcNAc(b1-2)[GlcNAc(b1-3)Gal(b1-4)GlcNAc(b1-3)Gal(b1-4)GlcNAc(b1-3)Gal(b1-4)GlcNAc(b1-3)Gal(b1-4)GlcNAc(b1-6)]Man(a1-6)[GlcNAc(b1-3)Gal(b1-4)GlcNAc(b1-3)Gal(b1-4)GlcNAc(b1-3)Gal(b1-4)GlcNAc(b1-3)Gal(b1-4)GlcNAc(b1-2)Man(a1-3)]Man(b1-4)GlcNAc(b1-4)[Fuc(a1-6)]GlcNAc
# In short: as §1
# [15] = target: GlcNAc(b1-3)Gal(b1-4)GlcNAc(b1-3)Gal(b1-4)GlcNAc(b1-3)GalNAc
# In short: as §1
# [16] = target: GlcNAc(b1-3)Gal(b1-4)GlcNAc(b1-3)GalNAc
# In short: as §1
# [17] = target: GlcNAc(b1-3)Gal(b1-4)GlcNAc(b1-3)[GlcNAc(b1-3)Gal(b1-4)GlcNAc(b1-3)]GalNAc
# In short: as §1
# [18] = target: GlcNAc(b1-3)Gal(b1-4)GlcNAc(b1-6)[Gal(b1-3)]GalNAc
# In short: as §1
# [19] = target: GlcNAc(b1-3)Gal(b1-4)GlcNAc(b1-6)[GlcNAc(b1-3)Gal(b1-3)]GalNAc
# In short: as §1
# [20] = target: GlcNAc(b1-3)Gal(b1-4)GlcNAc(b1-6)[GlcNAc(b1-3)]Gal(b1-4)GlcNAc
# In short: as §1
# GlcNAc(b1-3)GalNAc = target: GlcNAc(b1-3)GalNAc
# In short: as §1
# GlcNAc(b1-3)Man = target: GlcNAc(b1-3)Man
# In short: as §1
# [21] = target: GlcNAc(b1-3)[GlcNAc(b1-4)][GlcNAc(b1-6)]GlcNAc
# In short: as §1
# [22] = target: GlcNAc(b1-3)[GlcNAc(b1-6)]Gal(b1-4)GlcNAc
# In short: as §1
# [23] = target: GlcNAc(b1-3)[GlcNAc(b1-6)]GalNAc
# In short: as §1
# [24] = target: GlcNAc(b1-4)Gal(b1-4)GlcNAc
# In short: as §1
# GlcNAc(b1-4)GlcNAc = target: GlcNAc(b1-4)GlcNAc
# In short: as §1
# [25] = target: GlcNAc(b1-4)GlcNAc(b1-4)GlcNAc
# In short: as §1
# [26] = target: GlcNAc(b1-4)GlcNAc(b1-4)GlcNAc(b1-4)GlcNAc(b1-4)GlcNAc
# In short: as §1
# [27] = target: GlcNAc(b1-4)GlcNAc(b1-4)GlcNAc(b1-4)GlcNAc(b1-4)GlcNAc(b1-4)GlcNAc
# In short: as §1
# [28] = target: GlcNAc(b1-4)[GlcNAc(b1-6)]GalNAc
# In short: as §1
# [29] = target: GlcNAc(b1-6)Gal(b1-4)GlcNAc
# In short: as §1
# GlcNAc(b1-6)GalNAc = target: GlcNAc(b1-6)GalNAc
# In short: as §1
# [30] = target: GlcNAc6S(b1-3)Gal(b1-4)GlcNAc
# In short: as §1
# Kdn(a2-3)Gal(b1-3)GalNAc = target: Kdn(a2-3)Gal(b1-3)GalNAc
# In short: as §1
# Kdn(a2-3)Gal(b1-3)GlcNAc = target: Kdn(a2-3)Gal(b1-3)GlcNAc
# In short: as §1
# Kdn(a2-3)Gal(b1-4)Glc = target: Kdn(a2-3)Gal(b1-4)Glc
# In short: as §1
# Kdn(a2-3)Gal(b1-4)GlcNAc = target: Kdn(a2-3)Gal(b1-4)GlcNAc
# In short: as §1
# [31] = target: Kdn(a2-3)Gal(b1-4)[Fuc(a1-3)]GlcNAc
# In short: as §1
# Kdn(a2-6)Gal(b1-4)GlcNAc = target: Kdn(a2-6)Gal(b1-4)GlcNAc
# In short: as §1
# [32] = target: Man(a1-2)Man(a1-2)Man(a1-3)Man
# In short: as §1
# [33] = target: Man(a1-2)Man(a1-2)Man(a1-6)[Man(a1-3)]Man
# In short: as §1
# Man(a1-2)Man(a1-3)Man = target: Man(a1-2)Man(a1-3)Man
# In short: as §1
# [34] = target: Man(a1-2)Man(a1-3)[Man(a1-2)Man(a1-6)]Man
# In short: as §1
binder,measurement,setting,value
B1,glycan array binding signal (z-score),GlcNAc(b1-3)Gal(b1-4)Glc,-0.301
same,glycan array binding signal (z-score),[1],-0.271
same,glycan array binding signal (z-score),[2],-0.103
same,glycan array binding signal (z-score),[3],-0.121
same,glycan array binding signal (z-score),[4],-0.381
same,glycan array binding signal (z-score),[5],-0.335
same,glycan array binding signal (z-score),[6],0.828
same,glycan array binding signal (z-score),[7],0.006
same,glycan array binding signal (z-score),[8],-0.249
same,glycan array binding signal (z-score),[9],-0.295
same,glycan array binding signal (z-score),[10],-0.152
same,glycan array binding signal (z-score),[11],-0.115
same,glycan array binding signal (z-score),[12],-0.305
same,glycan array binding signal (z-score),[13],-0.097
same,glycan array binding signal (z-score),[14],-0.231
same,glycan array binding signal (z-score),[15],-0.318
same,glycan array binding signal (z-score),[16],0.032
same,glycan array binding signal (z-score),[17],-0.144
same,glycan array binding signal (z-score),[18],-0.245
same,glycan array binding signal (z-score),[19],-0.133
same,glycan array binding signal (z-score),[20],-0.335
same,glycan array binding signal (z-score),GlcNAc(b1-3)GalNAc,-0.312
same,glycan array binding signal (z-score),GlcNAc(b1-3)Man,4.99
same,glycan array binding signal (z-score),[21],-0.521
same,glycan array binding signal (z-score),[22],-0.336
same,glycan array binding signal (z-score),[23],-0.162
same,glycan array binding signal (z-score),[24],-0.339
same,glycan array binding signal (z-score),GlcNAc(b1-4)GlcNAc,0.234
same,glycan array binding signal (z-score),[25],-0.072
same,glycan array binding signal (z-score),[26],-0.125
same,glycan array binding signal (z-score),[27],-0.154
same,glycan array binding signal (z-score),[28],-0.374
same,glycan array binding signal (z-score),[29],-0.263
same,glycan array binding signal (z-score),GlcNAc(b1-6)GalNAc,-0.131
same,glycan array binding signal (z-score),[30],-0.273
same,glycan array binding signal (z-score),Kdn(a2-3)Gal(b1-3)GalNAc,-0.146
same,glycan array binding signal (z-score),Kdn(a2-3)Gal(b1-3)GlcNAc,-0.297
same,glycan array binding signal (z-score),Kdn(a2-3)Gal(b1-4)Glc,0.201
same,glycan array binding signal (z-score),Kdn(a2-3)Gal(b1-4)GlcNAc,-0.272
same,glycan array binding signal (z-score),[31],-0.095
same,glycan array binding signal (z-score),Kdn(a2-6)Gal(b1-4)GlcNAc,-0.206
same,glycan array binding signal (z-score),[32],-0.282
same,glycan array binding signal (z-score),[33],-0.136
same,glycan array binding signal (z-score),Man(a1-2)Man(a1-3)Man,-0.282
same,glycan array binding signal (z-score),[34],-0.375
